Data published in the supplement of paper PMC10369915.
This is one part of the list. No stated cut-off is given here; in the data, active = 3.2 or more and inactive = the rest. Most of these values are background signal.

Key:
Experiment in all cases: enrichment score (SH2-bound / input frequency) (ratio); bacterial display of known human phosphotyrosine sites (pTyr-Var adds point mutants) read by sequencing; higher = stronger binding; tyrosines were phosphorylated by kinases first
Settings in all cases: peptide library: Human pTyr
SHP2 C-SH2 domain E139D = target: SHP2 C-SH2 domain E139D
[1] = target: SHP2 C-SH2 domain wild-type
SHP2 N-SH2 domain L43F = target: SHP2 N-SH2 domain L43F
SHP2 N-SH2 domain T42A = target: SHP2 N-SH2 domain T42A
SHP2 N-SH2 domain T52S = target: SHP2 N-SH2 domain T52S
[2] = target: SHP2 N-SH2 domain wild-type

Measured: enrichment score
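Further: displayed peptides selected on beads carrying the immobilized SH2 domain, with library peptides lacking any tyrosine serving as negative controls.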

SSTSLAQYDSNSKKI [BMX_HUMAN_216]
inactive: SHP2 C-SH2 domain E139D 1.02 | [1] 0.901 | SHP2 N-SH2 domain L43F 0.924 | SHP2 N-SH2 domain T42A 0.83 | SHP2 N-SH2 domain T52S 0.506 | [2] 0.891

CSTPQSQYALAEKHL [BTK_HUMAN_344_YA]
inactive: SHP2 C-SH2 domain E139D 1.06 | [1] 1.07 | SHP2 N-SH2 domain L43F 1.02 | SHP2 N-SH2 domain T42A 1.03 | SHP2 N-SH2 domain T52S 1.38 | [2] 1.09

TIPELINYHQHNSAG [BTK_HUMAN_361]
inactive: SHP2 C-SH2 domain E139D 0.919 | [1] 0.852 | SHP2 N-SH2 domain L43F 0.541 | SHP2 N-SH2 domain T42A 0.498 | SHP2 N-SH2 domain T52S 0.575 | [2] 0.83

TVHKLSYYEYDFERG [BTK_HUMAN_40]
inactive: SHP2 C-SH2 domain E139D 2.65 | [1] 1.25 | SHP2 N-SH2 domain L43F 0.996 | SHP2 N-SH2 domain T42A 1.08 | SHP2 N-SH2 domain T52S 1.13 | [2] 1.24

EGRVAVEYLDPSPEV [BUB3_HUMAN_207]
inactive: SHP2 C-SH2 domain E139D 1.04 | [1] 0.785 | SHP2 N-SH2 domain L43F 0.731 | SHP2 N-SH2 domain T42A 0.912 | SHP2 N-SH2 domain T52S 0.839 | [2] 0.816

AIKWSNIYEDNGDDA [CA052_HUMAN_132]
inactive: SHP2 C-SH2 domain E139D 1.05 | [1] 1.12 | SHP2 N-SH2 domain L43F 1.28 | SHP2 N-SH2 domain T42A 1.21 | SHP2 N-SH2 domain T52S 1.24 | [2] 1.55

ELQDSRVYVSSLGGG [CACNA1C_HUMAN_2217]
inactive: SHP2 C-SH2 domain E139D 0.576 | [1] 0.492 | SHP2 N-SH2 domain L43F 0.694 | SHP2 N-SH2 domain T42A 0.556 | SHP2 N-SH2 domain T52S 0.533 | [2] 0.608

DDTRDNVYYYDEEGG [CADH1_HUMAN_753]
inactive: SHP2 C-SH2 domain E139D 1.3 | [1] 1.05 | SHP2 N-SH2 domain L43F 1.31 | SHP2 N-SH2 domain T42A 1.22 | SHP2 N-SH2 domain T52S 1.34 | [2] 1.63

DDTRDNVYAADEEGG [CADH1_HUMAN_753_YA]
inactive: SHP2 C-SH2 domain E139D 1.02 | [1] 1.08 | SHP2 N-SH2 domain L43F 1.19 | SHP2 N-SH2 domain T42A 1.25 | SHP2 N-SH2 domain T52S 1.27 | [2] 1.18

TRDNVYYYDEEGGGE [CADH1_HUMAN_755]
inactive: SHP2 C-SH2 domain E139D 0.884 | [1] 1.25 | SHP2 N-SH2 domain L43F 0.669 | SHP2 N-SH2 domain T42A 1.01 | SHP2 N-SH2 domain T52S 0.598 | [2] 0.629

TRDNVAAYDEEGGGE [CADH1_HUMAN_755_YA]
inactive: SHP2 C-SH2 domain E139D 1.18 | [1] 0.937 | SHP2 N-SH2 domain L43F 0.989 | SHP2 N-SH2 domain T42A 0.708 | SHP2 N-SH2 domain T52S 0.836 | [2] 0.862

DGDGQVNYEEFVQMM [CALM_HUMAN_139]
inactive: SHP2 C-SH2 domain E139D 0.89 | [1] 0.869 | SHP2 N-SH2 domain L43F 0.856 | SHP2 N-SH2 domain T42A 0.717 | SHP2 N-SH2 domain T52S 0.79 | [2] 0.803

APDTEEIYKLTGTGP [CAMP1_HUMAN_1537_YA]
inactive: SHP2 C-SH2 domain E139D 0.815 | [1] 0.485 | SHP2 N-SH2 domain L43F 0.554 | SHP2 N-SH2 domain T42A 0.67 | SHP2 N-SH2 domain T52S 0.823 | [2] 0.651

YDMDKDGYISNGELF [CANB1_HUMAN_106]
inactive: SHP2 C-SH2 domain E139D 0.628 | [1] 0.476 | SHP2 N-SH2 domain L43F 0.751 | SHP2 N-SH2 domain T42A 0.589 | SHP2 N-SH2 domain T52S 0.704 | [2] 0.662

ADMDKDGYISNGELF [CANB1_HUMAN_106_YA]
inactive: SHP2 C-SH2 domain E139D 0.623 | [1] 0.602 | SHP2 N-SH2 domain L43F 0.708 | SHP2 N-SH2 domain T42A 0.619 | SHP2 N-SH2 domain T52S 0.63 | [2] 0.836

EGLDFPEYDGVDRVI [CASQ1_HUMAN_43]
inactive: SHP2 C-SH2 domain E139D 0.714 | [1] 0.615 | SHP2 N-SH2 domain L43F 0.653 | SHP2 N-SH2 domain T42A 0.781 | SHP2 N-SH2 domain T52S 0.705 | [2] 0.929

NANGEAVYCKFHYKT [CAT_HUMAN_231]
inactive: SHP2 C-SH2 domain E139D 1.71 | [1] 1.86 | SHP2 N-SH2 domain L43F 1.3 | SHP2 N-SH2 domain T42A 1.47 | SHP2 N-SH2 domain T52S 1.61 | [2] 1.73

YRARVANYQRDGPMC [CAT_HUMAN_386]
inactive: SHP2 C-SH2 domain E139D 0.711 | [1] 0.583 | SHP2 N-SH2 domain L43F 0.65 | SHP2 N-SH2 domain T42A 0.552 | SHP2 N-SH2 domain T52S 0.664 | [2] 1.03

VDSEGHLYTVPIREQ [CAV1_HUMAN_14]
inactive: SHP2 C-SH2 domain E139D 0.668 | [1] 0.612 | SHP2 N-SH2 domain L43F 0.725 | SHP2 N-SH2 domain T42A 0.584 | SHP2 N-SH2 domain T52S 0.513 | [2] 0.77

TQEQAELYCEMGSTF [CBL_HUMAN_371_YA]
inactive: SHP2 C-SH2 domain E139D 1.29 | [1] 1.03 | SHP2 N-SH2 domain L43F 1 | SHP2 N-SH2 domain T42A 1.06 | SHP2 N-SH2 domain T52S 1.1 | [2] 1.29

SSSANAIYSLAARPL [CBL_HUMAN_674]
inactive: SHP2 C-SH2 domain E139D 0.529 | [1] 0.428 | SHP2 N-SH2 domain L43F 0.5 | SHP2 N-SH2 domain T42A 0.554 | SHP2 N-SH2 domain T52S 0.514 | [2] 0.48

VEEDDDEYKIPSSHP [CBLB_HUMAN_709]
inactive: SHP2 C-SH2 domain E139D 1.11 | [1] 1.06 | SHP2 N-SH2 domain L43F 1.04 | SHP2 N-SH2 domain T42A 1.22 | SHP2 N-SH2 domain T52S 1.17 | [2] 1.2

SEEQLQLYWAMDSTF [CBLC_HUMAN_341]
inactive: SHP2 C-SH2 domain E139D 1.37 | [1] 1.27 | SHP2 N-SH2 domain L43F 1.24 | SHP2 N-SH2 domain T42A 1.49 | SHP2 N-SH2 domain T52S 1.59 | [2] 1.53

TKYNQELYTTHGLIK [CC105_HUMAN_372]
inactive: SHP2 C-SH2 domain E139D 1.04 | [1] 0.968 | SHP2 N-SH2 domain L43F 1 | SHP2 N-SH2 domain T42A 0.957 | SHP2 N-SH2 domain T52S 1.51 | [2] 1.25

YGSPLKAYTPVVVTQ [CD11A_HUMAN_582]
inactive: SHP2 C-SH2 domain E139D 1.14 | [1] 1.97 | SHP2 N-SH2 domain L43F 0.757 | SHP2 N-SH2 domain T42A 2.42 | SHP2 N-SH2 domain T52S 0.961 | [2] 0.811

YGSPLKAYTPVVVTL [CD11B_HUMAN_594]
inactive: SHP2 C-SH2 domain E139D 1.7 | [1] 2.2 | SHP2 N-SH2 domain L43F 1.16 | SHP2 N-SH2 domain T42A 2.63 | SHP2 N-SH2 domain T52S 1.24 | [2] 1.48

KRNKPTVYGVSPNAD [ABL1_HUMAN_226_YA]
inactive: SHP2 C-SH2 domain E139D 0.922 | [1] 0.82 | SHP2 N-SH2 domain L43F 0.805 | SHP2 N-SH2 domain T42A 0.83 | SHP2 N-SH2 domain T52S 0.805 | [2] 0.854

EDMRGILYAAPQLRS [CD19_HUMAN_508]
inactive: SHP2 C-SH2 domain E139D 0.667 | [1] 0.44 | SHP2 N-SH2 domain L43F 0.566 | SHP2 N-SH2 domain T42A 0.562 | SHP2 N-SH2 domain T52S 0.662 | [2] 0.682

SRLLHSDYMNMTPRR [CD28_HUMAN_191]
inactive: SHP2 C-SH2 domain E139D 1.37 | [1] 1.1 | SHP2 N-SH2 domain L43F 1.14 | SHP2 N-SH2 domain T42A 0.911 | SHP2 N-SH2 domain T52S 0.977 | [2] 1.21

AEDQEPTYCNMGHLS [CD300LF_HUMAN_263]
inactive: SHP2 C-SH2 domain E139D 1.06 | [1] 0.776 | SHP2 N-SH2 domain L43F 0.89 | SHP2 N-SH2 domain T42A 0.824 | SHP2 N-SH2 domain T52S 1.17 | [2] 1.08

EMDEELHYASLNFHG [CD33_HUMAN_340]
active: SHP2 N-SH2 domain L43F 13.9 | SHP2 N-SH2 domain T42A 7.63 | SHP2 N-SH2 domain T52S 8.72 | [2] 3.77
inactive: SHP2 C-SH2 domain E139D 1.7 | [1] 2.86

SKDTSTEYSEVRTQG [CD33_HUMAN_358]
inactive: SHP2 C-SH2 domain E139D 1.49 | [1] 3.18 | SHP2 N-SH2 domain L43F 0.792 | SHP2 N-SH2 domain T42A 0.974 | SHP2 N-SH2 domain T52S 0.696 | [2] 0.869

ERLGEDPYYTENGGG [CD34_HUMAN_329]
inactive: SHP2 C-SH2 domain E139D 0.752 | [1] 0.782 | SHP2 N-SH2 domain L43F 0.86 | SHP2 N-SH2 domain T42A 0.789 | SHP2 N-SH2 domain T52S 0.664 | [2] 0.64

ENGGGQGYSSGPGTS [CD34_HUMAN_339]
inactive: SHP2 C-SH2 domain E139D 0.633 | [1] 0.524 | SHP2 N-SH2 domain L43F 0.553 | SHP2 N-SH2 domain T42A 0.576 | SHP2 N-SH2 domain T52S 0.561 | [2] 0.653

GGQAGEVYEGVWKKA [ABL1_HUMAN_257_YA]
inactive: SHP2 C-SH2 domain E139D 0.948 | [1] 0.516 | SHP2 N-SH2 domain L43F 0.661 | SHP2 N-SH2 domain T42A 0.42 | SHP2 N-SH2 domain T52S 0.685 | [2] 0.449

STATKDTYDALHMQA [CD3Z_HUMAN_153]
inactive: SHP2 C-SH2 domain E139D 0.741 | [1] 0.609 | SHP2 N-SH2 domain L43F 0.775 | SHP2 N-SH2 domain T42A 0.74 | SHP2 N-SH2 domain T52S 0.684 | [2] 0.547
